Test results published in PubChem BioAssay AID1460 (National Center for Advancing Translational Sciences (NCATS), 2008).
Screen size: about 270,000 compounds; about 5,800 (2.1%) were called active. The shares of active, inactive and inconclusive entries below differ from those in the screen. Calls come from the whole dose curve; as a rule, active = well fitted inhibition curve with a large enough effect; inconclusive = small, poorly fitted or top-dose-only effect; inactive = flat fitted curve, though single readings scatter. Potencies beside an inconclusive call are fits to weak or partial responses and may not hold up.

target: Microtubule-associated protein tau (Homo sapiens) (UniProt P10636); test: qHTS for Inhibitors of Tau Fibril Formation, Thioflavin T Binding; conditions: recombinant tau K18 P301L (four-repeat tau fragment), heparin-induced fibrillization, ThT fluorescence; series mostly up to 57.4 µM; activity, negative = inhibition: at the top concentration; note: nearly all actives have a fitted effect of over 55% in size
Sequence of UniProt P10636 (P10636 whole entry, looked up, the tested form may be a part): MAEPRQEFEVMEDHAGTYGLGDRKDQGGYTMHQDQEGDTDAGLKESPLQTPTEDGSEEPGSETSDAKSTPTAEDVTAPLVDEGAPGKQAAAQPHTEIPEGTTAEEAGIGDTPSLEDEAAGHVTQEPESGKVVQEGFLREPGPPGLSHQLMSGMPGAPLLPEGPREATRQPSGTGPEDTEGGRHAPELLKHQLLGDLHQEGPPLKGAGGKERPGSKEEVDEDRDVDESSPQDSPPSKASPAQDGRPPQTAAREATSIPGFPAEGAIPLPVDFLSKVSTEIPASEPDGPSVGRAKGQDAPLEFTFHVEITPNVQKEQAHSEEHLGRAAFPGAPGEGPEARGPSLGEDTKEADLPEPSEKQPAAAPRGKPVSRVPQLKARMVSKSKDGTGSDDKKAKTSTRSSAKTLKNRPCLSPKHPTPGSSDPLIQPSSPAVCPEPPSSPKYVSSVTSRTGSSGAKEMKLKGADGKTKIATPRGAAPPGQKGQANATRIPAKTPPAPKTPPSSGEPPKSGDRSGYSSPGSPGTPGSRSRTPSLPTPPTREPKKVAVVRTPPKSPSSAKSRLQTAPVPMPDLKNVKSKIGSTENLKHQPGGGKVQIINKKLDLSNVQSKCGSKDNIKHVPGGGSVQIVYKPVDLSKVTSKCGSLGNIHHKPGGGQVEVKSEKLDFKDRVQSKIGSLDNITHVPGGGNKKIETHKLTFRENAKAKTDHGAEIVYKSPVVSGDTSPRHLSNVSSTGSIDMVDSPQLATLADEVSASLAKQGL
Outline: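 Heparin-induced (20 uM) aggregation of recombinant human K18 P301L tau, 15 uM unlabeled with 0.24 uM labeled, pH 7 acetate buffer, 6 hr at 37 C with compound. Fibrils quantified by 30 uM ThT fluorescence after 1 hr ambient incubation.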
% is set by controls: 0 for no effect and ±100 for the full control effect; potency is the fitted concentration of half-maximal effect; tags give direction and shape of the fitted curve.

Row | Compound | activity, negative = inhibition | Potency
1 | COc1ccc(S(=O)(=O)Nc2ccc(N3CCOCC3)cc2)cc1[N+](=O)[O-] | inactive: -15.5% | –
2 | Cc1sccc1C1C(C#N)=C(N)SC(N)=C1C#N | – | inconclusive: 25.1 µM [inhibitor, partial curve]
3 | CCn1nnnc1NC(=O)c1cc(Cl)c(OC)c(Cl)c1 | inactive: 6% | –
4 | C/C(=N\NC(=O)c1ccc(CN2CCc3ccccc3C2)cc1)c1ccccc1O | – | inconclusive: 17.8 µM [inhibitor, partial curve, poor fit]
5 | Oc1ccccc1/C=N/N1CCN(c2ccccn2)CC1 | – | inconclusive: 11.2 µM [inhibitor, partial curve]
6 | CNc1sc(C(=O)c2cccs2)c(N)c1-c1nc2ccccc2s1 | – | active: 7.94 µM
7 | CC(C)NC(=O)C(=O)c1cn(C)c2ccccc12 | inactive: -4.65% | –
8 | COc1ccccc1CNC(=O)CSc1cc(C)[nH]c(=O)n1 | inactive: -11.5% | –
9 | Cc1ccn2c(Nc3ccc4c(c3)OCCO4)c(-c3ccc(N(C)C)cc3)nc2c1 | – | inconclusive: 17.8 µM [inhibitor, partial curve]
10 | CCN1C=C(Cc2ccccc2C)C2=C(C1)C(c1ccccc1C)C(C#N)=C(N)O2 (configuration not stated) | – | inconclusive: 17.8 µM [inhibitor, single point]
11 | CC/C(=C\C(=O)c1ccncc1)Nc1ccc(O)cc1 | – | inconclusive: 15.8 µM [inhibitor, partial curve]
12 | CC(=O)c1sc(N/N=C\c2ccc(Br)cc2)nc1C | – | inconclusive: 25.1 µM [inhibitor, partial curve]
13 | COc1ccc(N/N=C(/Oc2ccc([N+](=O)[O-])cc2)C(C)=O)cc1 | – | inconclusive: 35.5 µM [inhibitor, partial curve]
14 | COC(=O)[C@@H]1[C@@H](C#N)C2(c3ccccc3-c3ccccc32)N(c2ccc(Cl)cc2)N1C#N | – | inconclusive: 35.5 µM [inhibitor, single point]
15 | CCC(C)c1ccc(C2C3=C(Nc4nc(N)[nH]c(=O)c42)c2ccccc2C3=O)cc1 (configuration not stated) | – | inconclusive: 2.82 µM [inhibitor, full curve]
16 | CCN(CC)c1ccc2c(Nc3ccccc3)c(C=O)c(=O)oc2c1 | inactive: -12.6% | –
17 | COc1cc([N+](=O)[O-])ccc1-c1ccc(/C=N/NC(N)=O)o1 | – | inconclusive: 0.794 µM [inhibitor, full curve]
18 | Cc1ccc(CNC(=O)CSCc2nc(-c3cccc(C)c3)oc2C)cc1 | – | inconclusive: 25.1 µM [inhibitor, single point]
19 | CCOc1ccccc1NC(=O)Cn1nc(N2CCN(c3ccccc3)CC2)ccc1=O | – | inconclusive: 28.2 µM [inhibitor, single point]
20 | CCN(CC)C(=O)CSc1ncnc2c(-c3cccs3)nsc12 | – | inconclusive: 6.31 µM [inhibitor, partial curve]
21 | CCOC(=O)N1CCN(C(=O)CN(c2cccc(C)c2)S(=O)(=O)c2ccc(C)cc2)CC1 | inactive: -5.97% | –
22 | Cn1c(/C(C#N)=C/c2ccc(C(F)(F)F)cc2)nc2ccccc21 | – | inconclusive: 6.31 µM [inhibitor, partial curve]
23 | c1cncc(-c2nc(N3CCCCCC3)c3ccccc3n2)c1 | – | inconclusive: 17.8 µM [inhibitor, partial curve]
24 | O=C1NN(c2ccccc2)C(=O)/C1=C\c1ccc(-c2cc([N+](=O)[O-])ccc2O)o1 | – | active: 3.55 µM

Row | Compound | activity, negative = inhibition | Potency
25 | c1ccc2[nH]c(NN=C3CCCCCC3)nc2c1 | – | inconclusive: 15.8 µM [inhibitor, partial curve]
26 | Cc1cccc(NC(=O)N2CC=C(c3c[nH]c4ccccc34)CC2)c1C | – | inconclusive: 14.1 µM [inhibitor, partial curve]
27 | O=C(N/N=C/c1ccc(-c2ccccc2Cl)o1)c1ccccc1 | – | inconclusive: 2.24 µM [inhibitor, full curve]
28 | COc1ccc(NCC(=O)N/N=C/c2cc([N+](=O)[O-])ccc2N2CCCC2)cc1 | – | active: 11.2 µM
29 | O=C(CN1C(=O)CSc2ccc(S(=O)(=O)N3CCCC3)cc21)NCc1ccc(F)cc1Cl | inactive: 3.54% | –
30 | O=C(NCC1CC1)c1ccc(Nc2nc3ccc(Br)cc3[nH]2)cc1 | – | inconclusive: 15.8 µM [inhibitor, partial curve]
31 | O=C(c1cc2cc3ccc(Cl)cc3nc2o1)N1CCN(c2cccc(Cl)c2)CC1 | – | inconclusive: 3.16 µM [inhibitor, full curve]
32 | O=C(NC(Cc1ccccc1)C(=O)O)/C(=C/c1ccco1)NC(=O)c1cccc(Br)c1 (configuration not stated) | – | inconclusive: 39.8 µM [inhibitor, single point]
33 | Cc1ccc(C(=O)N/N=C\c2cc(Br)c(Br)o2)cn1 | – | inconclusive: 14.1 µM [inhibitor, partial curve, poor fit]
34 | S=c1[nH]c(-c2ccccc2)cn1/N=C/c1cccs1 | – | inconclusive: 2.51 µM [inhibitor, full curve]
35 | CCOC(=O)N1CCN(Cc2nc(N)nc(Nc3ccc(Oc4ccccc4)cc3)n2)CC1 | – | inconclusive: 28.2 µM [inhibitor, partial curve]
36 | Cc1ccc(-c2ccc(C(=O)NCc3ccc(Cl)cc3)o2)c2ccccc12 | – | inconclusive: 20 µM [inhibitor, partial curve]
37 | CCc1ccc2occ(CC(=O)Nc3ccc(C)c(C)c3)c2c1 | inactive: -12.1% | –
38 | C=CCO/N=C/C1C(=O)CC(C)(C)CC1=O | inactive: -9.6% | –
39 | Cc1nc(NC(=S)NC(=O)COc2ccccc2Cl)ccc1Br | inactive: -11.8% | –
40 | Cn1c(=S)ccc2ccccc21 | – | inconclusive: 39.8 µM [inhibitor, single point]
41 | CN(C)/C=C1/Nc2ccccc2C1=O | – | inconclusive: 20 µM [inhibitor, partial curve]
42 | CSc1ccc(C2C(C#N)=C(N)Oc3c2ccc(=O)c2c(C)oc(C)c32)cc1 (configuration not stated) | – | active: 25.1 µM
43 | COC(=O)c1ccc(CSc2cc(C)c3cccc(C)c3n2)o1 | inactive: -17.2% | –
44 | O=c1c(N2CCN(c3cccc(Cl)c3)CC2)csc2ccc(Cl)cc12 | – | active: 8.91 µM
45 | CC1CCCCC12NC(=S)N(c1ccccc1)N2 (configuration not stated) | – | active: 25.1 µM
46 | Cc1cc([N+](=O)[O-])nn1Cc1ccc(C(=O)N/N=C/c2ccc(O)cc2O)cc1 | – | inconclusive: 15.8 µM [inhibitor, partial curve]
47 | CC(C)C1Cc2c(sc(NC(=S)NC(=O)c3ccccc3)c2C#N)CO1 (configuration not stated) | inactive: -10.9% | –
48 | COc1ccccc1/C=N/OC(=O)c1ccc(F)cc1 | inactive: -4.85% | –

Row | Compound | activity, negative = inhibition | Potency
49 | COc1ccccc1NC(=O)CC1C(=O)NCCN1C(=O)Nc1ccccc1 (configuration not stated) | inactive: -6.81% | –
50 | CC(C)(C)NC(=O)COC(=O)c1cncc(Br)c1 | inactive: 2.15% | –
51 | CCCC1=NN(C(=O)C(=O)Nc2ccc(Br)cc2)C(O)(C(F)(F)F)C1 (configuration not stated) | – | inconclusive: 7.08 µM [inhibitor, single point]
52 | Cc1cc(/C=C2/NC(=O)NC2=O)c(C)n1-c1ccc(C#N)cc1 | – | inconclusive: 15.8 µM [inhibitor, partial curve]
53 | CN(C)c1ccc(CNC23CN4CN(CN(C4)C2)C3)cc1 | – | inconclusive: 31.6 µM [inhibitor, partial curve]
54 | CCOC(=O)N1CC=C2C(C#N)=C(N)C(C#N)(C#N)[C@H](c3cccs3)C2C1 (some centres not stated) | – | inconclusive: 31.6 µM [inhibitor, single point]
55 | CCOC(=O)C1CCCN(c2nc3c(C)cccn3c(=O)c2/C=C(\C#N)C(=O)NCc2ccco2)C1 (configuration not stated) | – | inconclusive: 39.8 µM [inhibitor, single point]
56 | Cc1ccc(C2=NN(C(=O)CCl)C(c3cccs3)C2)o1 (configuration not stated) | – | inconclusive: 20 µM [inhibitor, single point]
57 | O=[N+]([O-])c1ccccc1N/N=C/c1cc2ccccc2nc1Cl | – | active: 2.24 µM
58 | CC(C)N1C(=O)/C(=C/c2nc3ccccc3c(=O)n2-c2ccccc2)c2ccccc21 | – | inconclusive: 15.8 µM [inhibitor, partial curve]
59 | CCCC(=O)Nc1ccc(C(=O)NNC(=O)c2ccccc2Br)cc1 | – | inconclusive: 17.8 µM [inhibitor, partial curve]
60 | CCCSc1ncnc2c1c(-c1ccccc1)cn2-c1ccccc1OC | inactive: -5.79% | –
61 | COc1ccc(OC)c(NC(=O)CS(=O)(=O)Cc2nc(-c3ccc(C)cc3)oc2C)c1 | – | inconclusive: 35.5 µM [inhibitor, single point]
62 | COc1ccc(-c2cn3nc(SCC(=O)Nc4cc(C)cc(C)c4)ccc3n2)cc1 | inactive: -17.2% | –
63 | COC(=O)c1ccc(-n2nnnc2SC)cc1 | inactive: -14.1% | –
64 | O=C(CSc1nc2ccccc2n1Cc1cccc(F)c1)N1CCN(c2ccc(F)cc2)CC1 | – | inconclusive: 22.4 µM [inhibitor, single point]
65 | O=C(NC1CCCCCC1)c1ccc(CS(=O)c2cccc(Cl)c2)o1 (configuration not stated) | inactive: 3.86% | –
66 | Cc1cc(C)c(NC(=O)Cn2c(=O)n(CC(=O)NCCc3ccccc3)c(=O)c3ccccc32)c(C)c1 | inactive: 11.6% | –
67 | COc1ccc(/C=C/C(=O)c2cc3cccc(OC)c3oc2=O)cc1 | – | active: 7.08 µM
68 | CCC(=O)NNc1ncnc2c1cnn2-c1cccc(C)c1 | – | inconclusive: 39.8 µM [inhibitor, single point]
69 | COc1ccc(NC(=O)CN2CCN(c3ccc(Cl)cc3)CC2)c(OC)c1 | – | inconclusive: 28.2 µM [inhibitor, partial curve]
70 | Cc1ccc(S(=O)(=O)c2c(N)n(Cc3ccco3)c3nc4ccccc4nc23)cc1C | – | inconclusive: 15.8 µM [inhibitor, single point]
71 | CCOC(=O)c1cc(C#N)c(SCC(=O)c2cc(C#N)c(SC)nc2C)nc1C | – | inconclusive: 1.58 µM [inhibitor, full curve, poor fit]
72 | Brc1cc(Br)c2nc(-c3ccc(N4CCOCC4)cc3)ccc2c1 | – | inconclusive: 3.55 µM [inhibitor, full curve]
